# Data from PubChem BioAssay (NCATS).
# The inconclusive results got no clear call from the source; some entries with a clear call stand among them for comparison. Potencies of inconclusive entries are doubtful fits and often do not repeat. Some compounds were tested as several samples or in several runs, with calls that do not always agree. Activity calls are given as the source filed them. Unless noted, the call rests on the fitted dose curve; in most records, active means well fitted inhibition curve with a large enough effect; inconclusive means small, poorly fitted or top-dose-only effect; inactive means flat fitted curve, though single readings scatter.
# Experiments:
# CRL-7250 = normal cell line; test: Cytotoxic Profiling of Annotated Libraries Using Quantitative High-Throughput Screening (AID 1296008); conditions: Five cell lines viability, CellTiter-Glo ATP luminescence, 48-72 h; max response: stronger effect = lower value; further: nearly all actives have a fitted effect of over 60% in size; on max response: on the % scale 0 is the no-effect control and ±100 the full control effect
# Procedure, shortened: (§1)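 Cells exposed to compounds for 48 or 72 hr at 37 degrees Celsius. Viability read as ATP-coupled luminescence with CellTiter-Glo after 10 min at room temperature.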
# HEK293 = test: as above; conditions: Five cell lines viability, CellTiter-Glo ATP luminescence, 48-72 h; max response: stronger effect = lower value
# Procedure, shortened: as §1
# [1] = qHTS for identification of novel therapeutic agents for treatment of microphthalmiaassociated transcription factor (MiT) renal cell carcinoma (RCC) (AID 1963991; calls by dose curve); conditions: TFE3-RCC UOK109 viability, CellTiter-Glo, 48 h
# Procedure, shortened: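 Curves over 11 concentrations were fitted to CellTiter-Glo luminescence, scaled between empty wells (0%) and DMSO (100%) viability. Cells were UOK109, UOK124 and UOK145 TFE3-fusion RCC lines at 500/well, exposed 48 hours at 37 C.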
# Potency means the concentration at half of the fitted maximal effect; tags describe the fitted curve by direction and shape.
smiles,measurement,setting,value
CN(C)c1cc2c(cc1Sc1nc3c(N)nccc3n1CCNCC(C)(C)C)OCO2,Potency,CRL-7250,active: 1.84 µM
same,Potency,HEK293,active: 0.58 µM
CC(C)Oc1cccc(NC(=O)c2ccccc2C(F)(F)F)c1,Potency,CRL-7250,active: 54.5 µM
same,Potency,HEK293,"inconclusive: 21.7 µM [inhibitor, partial curve, poor fit]"
NC(=O)[C@@H](CC1CC1)[C@@H](CCC(F)(F)F)C(=O)N[C@H]1N=C(c2ccccc2)c2cccc(F)c2NC1=O,Potency,CRL-7250,"inconclusive: 29.1 µM [inhibitor, single point]"
same,max response,HEK293,inactive: 0.706%
C=C1[C@@H](C)[C@H]2[C@H](Cc3ccccc3)NC(=O)[C@]23OC(=O)/C=C/C(=O)CCC[C@@H](C)C/C=C/[C@H]3[C@@H]1O,Potency,CRL-7250,active: 1.64 µM
same,Potency,HEK293,active: 1.84 µM
CCCCCCCCc1ccc(O)cc1,Potency,CRL-7250,"inconclusive: 43.7 µM [inhibitor, single point]"
same,Potency,HEK293,"inconclusive: 69.3 µM [inhibitor, single point]"
O=c1oc2ccccc2c(O)c1Cc1c(O)c2ccccc2oc1=O,Potency,CRL-7250,"inconclusive: 29.9 µM [inhibitor, single point]"
same,Potency,HEK293,"inconclusive: 33.5 µM [inhibitor, single point]"
CC(C)[C@H]1C(=O)N[C@H](CO)Cc2c[nH]c3cccc(c23)N1C,Potency,CRL-7250,"inconclusive: 0.935 µM [inhibitor, full curve]"
same,Potency,HEK293,"inconclusive: 8.33 µM [inhibitor, full curve]"
C[N@@+]1(CC2CC2)CC[C@]23c4c5ccc(O)c4O[C@H]2C(=O)CC[C@@]3(O)[C@H]1C5,max response,CRL-7250,inactive: 2.78%
same,max response,HEK293,inactive: 0.678%
CC1=CC2OC3[C@H](O)C[C@@](C)([C@]34CO4)[C@@]2(CO)[C@H](O)C1=O (some centres undefined),Potency,CRL-7250,active: 3.26 µM
same,Potency,HEK293,active: 1.64 µM
C/C=C(\C)C(=O)O[C@@H]1[C@@H](C)[C@]2(O)C3C=C(C)C(=O)[C@@]3(O)CC(CO)=C[C@H]2C2C(C)(C)[C@@]21OC(=O)C(C)CC (some centres undefined),Potency,CRL-7250,"inconclusive: 0.008 µM [inhibitor, full curve, poor fit]"
same,Potency,HEK293,"inconclusive: 7.96 µM [inhibitor, single point]"
C/C(=C\c1csc(C)n1)[C@@H]1C[C@@H]2O[C@@H]2CCC[C@H](C)[C@H](O)[C@@H](C)C(=O)C(C)(C)[C@@H](O)CC(=O)O1,Potency,CRL-7250,"inconclusive: 0.0651 µM [inhibitor, full curve, poor fit]"
same,Potency,HEK293,active: 0.0065 µM
CC(=O)OC[C@]12C[C@H](OC(C)=O)C(C)=C[C@H]1O[C@@H]1[C@H](O)[C@@H](O)[C@@]2(C)[C@]12CO2,Potency,CRL-7250,"inconclusive: 1.01 µM [inhibitor, full curve, poor fit]"
same,Potency,HEK293,"inconclusive: 0.161 µM [inhibitor, full curve, poor fit]"
c1ccc2c(c1)OCC(C1=NCCN1)O2 (centres undefined),Potency,CRL-7250,active: 23.7 µM
same,Potency,HEK293,active: 18.8 µM
Cc1ccc([N+](=O)[O-])[c]2c1[O][Hg]2,Potency,CRL-7250,active: 1.5 µM
same,Potency,HEK293,active: 1.06 µM
CC1=CC2/C=C(\C)CCC(O)C(O)C(O)CC(=O)C23C(=O)NC(CC(C)C)C3C1C (centres undefined),Potency,CRL-7250,"inconclusive: 7.96 µM [inhibitor, single point]"
same,Potency,HEK293,"inconclusive: 11.2 µM [inhibitor, single point]"
CC(=O)OC[C@]12C[C@H](OC(=O)CC(C)C)C(C)=C[C@H]1O[C@@H]1[C@H](O)[C@@H](OC(C)=O)[C@@]2(C)[C@@]12CO2,Potency,CRL-7250,active: 0.0893 µM
same,Potency,HEK293,active: 0.0224 µM
COc1ccc(Cc2nccc3cc(OC)c(OC)cc23)cc1OC,Potency,CRL-7250,active: 5.31 µM
same,Potency,HEK293,"inconclusive: 33.2 µM [inhibitor, single point]"
CCO/N=C(\CC)C1=C(O)CC(c2c(C)cc(C)cc2C)CC1=O (centres undefined),Potency,CRL-7250,"inconclusive: 54.5 µM [inhibitor, single point]"
same,Potency,HEK293,active: 24.3 µM
CNc1ccc2oc(C[C@H]3O[C@@]4(CC[C@H]3C)O[C@H](C(C)C(=O)c3ccc[nH]3)[C@H](C)C[C@H]4C)nc2c1C(=O)O (some centres undefined),Potency,CRL-7250,active: 5.8 µM
same,Potency,HEK293,active: 1.3 µM
CC1(C)CC/C(=C/c2ccc(Cl)cc2)C1(O)Cn1cncn1 (centres undefined),max response,CRL-7250,inactive: -5.73%
same,Potency,HEK293,"inconclusive: 13.5 µM [inhibitor, partial curve]"
COC[C@]12CN(C)C3C4[C@H](OC)[C@H]1C3(C(OC)C[C@H]2O)[C@H]1C[C@@]2(O)[C@H](OC(=O)c3ccccc3)[C@@H]1[C@]4(O)[C@@H](O)[C@@H]2OC (some centres undefined),Potency,CRL-7250,"inconclusive: 25.9 µM [inhibitor, single point]"
same,Potency,HEK293,"inconclusive: 29.1 µM [inhibitor, single point]"
C=CCOC(Cn1ccnc1)c1ccc(Cl)cc1Cl (centres undefined),max response,CRL-7250,inactive: -16.8%
same,Potency,HEK293,"inconclusive: 26.6 µM [inhibitor, single point]"
CNC(C)Cc1ccccc1OC (centres undefined),max response,CRL-7250,inactive: -10.9%
same,max response,HEK293,inactive: -10.8%
NC(=O)c1ncn2c1CN=C(c1ccccc1Br)c1cc(F)ccc1-2,max response,CRL-7250,inactive: -2.22%
same,max response,HEK293,inactive: 0.36%
NC1(c2ccccc2)CCCCC1,Potency,CRL-7250,"inconclusive: 67.9 µM [inhibitor, single point]"
same,Potency,HEK293,active: 38.2 µM
Cc1ccc2c(c1)[C@H]1CN(C)CC[C@H]1N2C(=O)CSc1nnnn1-c1ccc(Cl)cc1,max response,CRL-7250,inactive: 0.988%
same,Potency,HEK293,"inconclusive: 29.1 µM [inhibitor, single point]"
CC1=CC2/C=C(\C)CCC(O)C(O)/C=C/C(=O)OC23C(=O)NC(CC(C)C)C3C1C (centres undefined),max response,CRL-7250,inactive: -26.9%
same,Potency,HEK293,"inconclusive: 15.9 µM [inhibitor, single point]"
C[C@]12CC[C@H](O)CC1=CC[C@@H]1C2CC[C@]2(C)[C@@H](C3=CC(=O)OC3)CC[C@]12O (some centres undefined),Potency,CRL-7250,active: 5.08 µM
same,Potency,HEK293,"inconclusive: 5.08 µM [inhibitor, partial curve, poor fit]"
COc1ccc(C(c2ccc(OC)cc2)C(Cl)(Cl)Cl)cc1,Potency,CRL-7250,"inconclusive: 48.1 µM [inhibitor, single point]"
same,Potency,HEK293,"inconclusive: 67.9 µM [inhibitor, single point]"
Oc1ccc2c(c1)C13CCCC[C@H]1[C@@H](C2)N(CC1CCC1)CC3,max response,CRL-7250,inactive: -16.2%
same,Potency,HEK293,"inconclusive: 16.4 µM [inhibitor, partial curve]"
CN(C(=O)CN1C(=O)COc2cc(Cl)c(Cl)cc21)[C@@H](CN1CCCC1)c1ccc(-c2cccc(C(N)=O)c2)cc1,Potency,CRL-7250,"inconclusive: 29.1 µM [inhibitor, single point]"
same,Potency,HEK293,"inconclusive: 20.6 µM [inhibitor, single point]"
O=C(Oc1ccc([N+](=O)[O-])cc1)N1CCN(Cc2cccc(Oc3ccccc3)c2)CC1,Potency,[1],"inconclusive: 6.62 µM [falling, full curve]"
same,Potency,HEK293,"inconclusive: 18.4 µM [inhibitor, single point]"
